No constants are given. Whether binding was seen depends on the method and setting. In cells and extracts the contact can be indirect. Some results given as binding are weak or reduced against the parent protein; the word gives no strength.

Our source for the binding values is PMC6018503.

Holding throughout (assay): split reporter; BiFC; YFP^N (aa 1-155) and YFP^C (aa 156-239) fusions (pCAMBIA-SPYNE, pCAMBIA-SPYCE) co-expressed in tobacco (Nicotiana benthamiana) leaf epidermal cells through Agrobacterium GV3101; confocal microscopy of YFP; only the two named fusions
Experiment [1] deals with T1, OsRFC3 (rice (Oryza sativa)) (UniProt Q6YZ54).
T1 sequence: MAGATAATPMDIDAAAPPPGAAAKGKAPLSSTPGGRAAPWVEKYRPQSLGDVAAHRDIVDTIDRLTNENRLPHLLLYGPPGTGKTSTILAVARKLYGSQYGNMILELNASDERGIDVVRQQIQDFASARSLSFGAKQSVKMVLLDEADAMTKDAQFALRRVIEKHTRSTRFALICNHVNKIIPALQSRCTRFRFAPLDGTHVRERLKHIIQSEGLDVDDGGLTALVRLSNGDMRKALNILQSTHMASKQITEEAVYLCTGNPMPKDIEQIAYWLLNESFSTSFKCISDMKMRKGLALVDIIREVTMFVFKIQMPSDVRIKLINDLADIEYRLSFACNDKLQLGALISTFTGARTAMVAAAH

Experiment [2] addresses T2, OsRFC5 (rice (Oryza sativa)) (UniProt Q852K3).
T2 sequence: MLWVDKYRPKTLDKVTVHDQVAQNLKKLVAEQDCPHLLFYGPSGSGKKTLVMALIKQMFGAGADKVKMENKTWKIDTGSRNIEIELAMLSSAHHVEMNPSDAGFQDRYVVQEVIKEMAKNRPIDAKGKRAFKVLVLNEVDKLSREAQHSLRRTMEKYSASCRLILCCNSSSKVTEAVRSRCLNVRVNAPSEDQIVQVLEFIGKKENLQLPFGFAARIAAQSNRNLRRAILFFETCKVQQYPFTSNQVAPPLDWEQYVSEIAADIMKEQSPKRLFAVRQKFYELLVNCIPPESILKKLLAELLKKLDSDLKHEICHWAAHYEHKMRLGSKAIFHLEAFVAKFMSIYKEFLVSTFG

Experiment [3] addresses T3, OsRFC1 (rice (Oryza sativa)) (UniProt Q2R2B4).
T3 sequence: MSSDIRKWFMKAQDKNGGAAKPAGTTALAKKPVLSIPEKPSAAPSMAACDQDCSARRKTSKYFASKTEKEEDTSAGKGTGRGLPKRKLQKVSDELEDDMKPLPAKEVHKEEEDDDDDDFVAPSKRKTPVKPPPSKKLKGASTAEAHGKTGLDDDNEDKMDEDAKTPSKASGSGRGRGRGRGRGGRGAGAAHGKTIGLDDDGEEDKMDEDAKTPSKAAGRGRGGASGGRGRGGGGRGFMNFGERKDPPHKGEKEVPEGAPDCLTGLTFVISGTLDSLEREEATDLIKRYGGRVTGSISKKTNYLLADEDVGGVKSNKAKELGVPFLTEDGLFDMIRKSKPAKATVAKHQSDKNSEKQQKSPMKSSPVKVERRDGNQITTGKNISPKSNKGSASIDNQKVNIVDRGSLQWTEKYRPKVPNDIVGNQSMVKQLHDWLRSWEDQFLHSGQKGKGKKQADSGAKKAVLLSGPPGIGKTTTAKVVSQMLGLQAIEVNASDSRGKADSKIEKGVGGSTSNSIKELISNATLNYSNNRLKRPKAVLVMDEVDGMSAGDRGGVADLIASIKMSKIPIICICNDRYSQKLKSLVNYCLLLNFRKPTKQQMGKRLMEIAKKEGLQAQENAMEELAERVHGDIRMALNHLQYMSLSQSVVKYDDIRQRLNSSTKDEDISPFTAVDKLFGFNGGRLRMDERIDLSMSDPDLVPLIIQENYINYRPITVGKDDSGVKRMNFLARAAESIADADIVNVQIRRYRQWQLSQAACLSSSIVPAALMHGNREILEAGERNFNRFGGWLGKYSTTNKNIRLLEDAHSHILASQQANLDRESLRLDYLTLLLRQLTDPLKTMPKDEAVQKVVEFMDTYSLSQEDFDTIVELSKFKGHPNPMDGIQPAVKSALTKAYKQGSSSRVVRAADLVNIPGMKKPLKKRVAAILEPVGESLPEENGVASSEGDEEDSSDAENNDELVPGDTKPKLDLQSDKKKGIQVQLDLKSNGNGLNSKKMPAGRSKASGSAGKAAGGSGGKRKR

In experiment [4] the target is T4, OsRFC4 (rice (Oryza sativa)) (UniProt Q7XRX1).
T4 sequence: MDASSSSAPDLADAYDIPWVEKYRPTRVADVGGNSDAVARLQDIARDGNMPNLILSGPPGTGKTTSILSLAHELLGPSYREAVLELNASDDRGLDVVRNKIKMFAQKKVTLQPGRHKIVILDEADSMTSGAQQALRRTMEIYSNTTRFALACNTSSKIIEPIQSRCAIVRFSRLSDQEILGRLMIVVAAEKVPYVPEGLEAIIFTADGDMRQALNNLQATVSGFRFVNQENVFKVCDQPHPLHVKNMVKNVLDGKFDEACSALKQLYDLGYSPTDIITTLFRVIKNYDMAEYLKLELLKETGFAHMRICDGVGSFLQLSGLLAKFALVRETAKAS

The target in experiment [5] is OsRFC2 (rice (Oryza sativa)) (UniProt Q9FXM3).

B1: OsRFC2 Δ1–221 (domain or fragment, UniProt Q9FXM3 222-339)
chain: LFGSSISSTDLISVSGAIPEDVVKSLLASCKSGEFDVANKEVNNIIADGYPVSQLISQFLDVIVNADDIPDEQKARICKKLGEADKCLVDGADEYLQLLDVASETIRALFDMPQTLVF
For B1, the binding entry in experiment [1], in experiment [2] and in experiment [3] was “binds” each time.

B2: OsRFC1 Δ1–721 (domain or fragment, UniProt Q2R2B4 722-1021)
chain: VKRMNFLARAAESIADADIVNVQIRRYRQWQLSQAACLSSSIVPAALMHGNREILEAGERNFNRFGGWLGKYSTTNKNIRLLEDAHSHILASQQANLDRESLRLDYLTLLLRQLTDPLKTMPKDEAVQKVVEFMDTYSLSQEDFDTIVELSKFKGHPNPMDGIQPAVKSALTKAYKQGSSSRVVRAADLVNIPGMKKPLKKRVAAILEPVGESLPEENGVASSEGDEEDSSDAENNDELVPGDTKPKLDLQSDKKKGIQVQLDLKSNGNGLNSKKMPAGRSKASGSAGKAAGGSGGKRKR
B2: the binding entry in experiment [4], in experiment [1], in experiment [5] and in experiment [2] was “binds” throughout.

B3: OsRFC1 with the region between 722 and 1,021 aa deleted (domain or fragment, UniProt Q2R2B4 1-721)
chain: MSSDIRKWFMKAQDKNGGAAKPAGTTALAKKPVLSIPEKPSAAPSMAACDQDCSARRKTSKYFASKTEKEEDTSAGKGTGRGLPKRKLQKVSDELEDDMKPLPAKEVHKEEEDDDDDDFVAPSKRKTPVKPPPSKKLKGASTAEAHGKTGLDDDNEDKMDEDAKTPSKASGSGRGRGRGRGRGGRGAGAAHGKTIGLDDDGEEDKMDEDAKTPSKAAGRGRGGASGGRGRGGGGRGFMNFGERKDPPHKGEKEVPEGAPDCLTGLTFVISGTLDSLEREEATDLIKRYGGRVTGSISKKTNYLLADEDVGGVKSNKAKELGVPFLTEDGLFDMIRKSKPAKATVAKHQSDKNSEKQQKSPMKSSPVKVERRDGNQITTGKNISPKSNKGSASIDNQKVNIVDRGSLQWTEKYRPKVPNDIVGNQSMVKQLHDWLRSWEDQFLHSGQKGKGKKQADSGAKKAVLLSGPPGIGKTTTAKVVSQMLGLQAIEVNASDSRGKADSKIEKGVGGSTSNSIKELISNATLNYSNNRLKRPKAVLVMDEVDGMSAGDRGGVADLIASIKMSKIPIICICNDRYSQKLKSLVNYCLLLNFRKPTKQQMGKRLMEIAKKEGLQAQENAMEELAERVHGDIRMALNHLQYMSLSQSVVKYDDIRQRLNSSTKDEDISPFTAVDKLFGFNGGRLRMDERIDLSMSDPDLVPLIIQENYINYRPITVGKDDSG
As for B3, the binding result in experiment [4], in experiment [1], in experiment [5] and in experiment [2] was “binds” throughout.

B4: OsRFC3 Δ62–361 (domain or fragment, UniProt Q6YZ54 1-61)
chain: MAGATAATPMDIDAAAPPPGAAAKGKAPLSSTPGGRAAPWVEKYRPQSLGDVAAHRDIVDT
Consider B4, for which the binding entry is given as “binds” in experiment [4], “no binding” in experiment [5] and “no binding” in experiment [3].

B5: OsRFC1 Δ1–642 (domain or fragment, UniProt Q2R2B4 643-1021)
chain: LSQSVVKYDDIRQRLNSSTKDEDISPFTAVDKLFGFNGGRLRMDERIDLSMSDPDLVPLIIQENYINYRPITVGKDDSGVKRMNFLARAAESIADADIVNVQIRRYRQWQLSQAACLSSSIVPAALMHGNREILEAGERNFNRFGGWLGKYSTTNKNIRLLEDAHSHILASQQANLDRESLRLDYLTLLLRQLTDPLKTMPKDEAVQKVVEFMDTYSLSQEDFDTIVELSKFKGHPNPMDGIQPAVKSALTKAYKQGSSSRVVRAADLVNIPGMKKPLKKRVAAILEPVGESLPEENGVASSEGDEEDSSDAENNDELVPGDTKPKLDLQSDKKKGIQVQLDLKSNGNGLNSKKMPAGRSKASGSAGKAAGGSGGKRKR
As to B5, the binding result in experiment [4], in experiment [1], in experiment [5] and in experiment [2] was “binds” in each case.

B6: OsRFC3 Δ342–361 (domain or fragment, UniProt Q6YZ54 1-341)
chain: MAGATAATPMDIDAAAPPPGAAAKGKAPLSSTPGGRAAPWVEKYRPQSLGDVAAHRDIVDTIDRLTNENRLPHLLLYGPPGTGKTSTILAVARKLYGSQYGNMILELNASDERGIDVVRQQIQDFASARSLSFGAKQSVKMVLLDEADAMTKDAQFALRRVIEKHTRSTRFALICNHVNKIIPALQSRCTRFRFAPLDGTHVRERLKHIIQSEGLDVDDGGLTALVRLSNGDMRKALNILQSTHMASKQITEEAVYLCTGNPMPKDIEQIAYWLLNESFSTSFKCISDMKMRKGLALVDIIREVTMFVFKIQMPSDVRIKLINDLADIEYRLSFACNDKLQ
As to B6, the binding result is reported as “binds” in experiment [4], “binds” in experiment [5] and “no binding” in experiment [3].

B7: OsRFC3 Δ322–361 (domain or fragment, UniProt Q6YZ54 1-321)
chain: MAGATAATPMDIDAAAPPPGAAAKGKAPLSSTPGGRAAPWVEKYRPQSLGDVAAHRDIVDTIDRLTNENRLPHLLLYGPPGTGKTSTILAVARKLYGSQYGNMILELNASDERGIDVVRQQIQDFASARSLSFGAKQSVKMVLLDEADAMTKDAQFALRRVIEKHTRSTRFALICNHVNKIIPALQSRCTRFRFAPLDGTHVRERLKHIIQSEGLDVDDGGLTALVRLSNGDMRKALNILQSTHMASKQITEEAVYLCTGNPMPKDIEQIAYWLLNESFSTSFKCISDMKMRKGLALVDIIREVTMFVFKIQMPSDVRIKL
As for B7, the binding result in experiment [4] is “binds”; in experiment [5] it was “no binding”; in experiment [3] it was “no binding”.
